Results reported in the supplement of paper PMC4604168 (melanoma cell lines).
The list shows a part of the results. Repeats are few or missing, and single values can be far off.

system: A101D; assay: cell count relative to DMSO control; melanoma cells; higher = more viable cells; conditions: library dose: low library concentration; 72 h
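Further: cell number obtained by counting DAPI-stained nuclei in high-throughput microscope images with image analysis software, screen run in 1,536-well plates.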

Row | SMILES | cell count [%]
1 | COCC[n+]1c2c(n(Cc3cnccn3)c1C)C(=O)c1ccccc1C2=O + O=c1cc(-c2cccc3c2Sc2ccccc2S3)oc(N2CCOCC2)c1 [KU55933] (first compound 0.0004 µM, partner dose 1 µM) | 105
2 | O=C(CCCCCCC(=O)Nc1ccccc1)NO [vorinostat] + COc1ccc2c(c1)CCC1C2CCC2(C)C(NCCCCCCN3C(=O)C=CC3=O)CCC12 [U73122] (first compound 0.08 µM, partner dose 0.4 µM) | 88.9
3 | C#Cc1cccc(Nc2ncnc3cc(OCCOC)c(OCCOC)cc23)c1 [erlotinib] + c1cc(-c2cnn3cc(-c4ccc(OCCN5CCCCC5)cc4)cnc23)ccn1 [Dorsomorphin] (first compound 0.8 µM, partner dose 0.4 µM) | 94.8
4 | C#Cc1cccc(Nc2ncnc3cc(OCCOC)c(OCCOC)cc23)c1 [erlotinib] + COc1cc2ncnc(Nc3ccc(Oc4ccccc4)cc3)c2cc1OC [SrcI1] (first compound 0.8 µM, partner dose 2 µM) | 90.6
5 | Nc1cccc2c1CN(C1CCC(=O)NC1=O)C2=O (stereo unspecified) [lenalidomide] + CCN(CC)CCCCNc1ncc2cc(-c3cc(OC)cc(OC)c3)c(NC(=O)NC(C)(C)C)nc2n1 [PD173074] (first compound 1 µM, partner dose 0.1 µM) | 120
6 | COCC[n+]1c2c(n(Cc3cnccn3)c1C)C(=O)c1ccccc1C2=O + COc1ccc2c(c1)CCC1C2CCC2(C)C(NCCCCCCN3C(=O)C=CC3=O)CCC12 [U73122] (first compound 0.0004 µM, partner dose 0.4 µM) | 111
